Laboratory results from the supplement of paper PMC8813932.
Counter-ions that a name gives are not always drawn. ± gives the standard deviation of the averaged measurements. The list shows a part of the results. Many values rest on one well or one pass, so single values are uncertain.

Tests used:
Assay in all cases: log2 surviving fraction relative to plate median (drug vs vehicle, or drug+dl922-947 vs dl922-947 alone); ovarian cancer lines: OVCAR4 is platinum-sensitive while Ov4Cis resists cisplatin and Ov4Carbo carboplatin; higher = more cell survival
Details in all cases: compound concentration: 10 uM, 192 h
OVCAR4 = tested on: OVCAR4
Ov4Carbo = tested on: Ov4Carbo
Ov4Cis = tested on: Ov4Cis
[1] = dl922-947 oncolytic adenovirus co-treatment: MOI 10
[2] = dl922-947 oncolytic adenovirus co-treatment: none

SMILES | log2 surviving fraction (OVCAR4; [1]) | log2 surviving fraction (OVCAR4; [2]) | log2 surviving fraction (Ov4Carbo; [1]) | log2 surviving fraction (Ov4Carbo; [2]) | log2 surviving fraction (Ov4Cis; [1]) | log2 surviving fraction (Ov4Cis; [2])
Cc1c(OCC(F)(F)F)ccnc1C[S@@+]([O-])c1nc2ccccc2[nH]1 [Dexlansoprazole] | -0.363 ± 0.25 | -2.08 ± 0.5 | 0.147 | -2.49 | -0.396 | -1.55
C[C@H]1COc2c(N3CCN(C)CC3)c(F)cc3c(=O)c(C(=O)O)cn1c23 [Levofloxacin (Levaquin)] | 0.895 ± 0.44 | 0.377 ± 0.23 | -0.443 | 0.438 | -0.63 | 0.201
CC(C)C(=O)Nc1ccc([N+](=O)[O-])c(C(F)(F)F)c1 [Flutamide (Eulexin)] | -0.446 ± 0.61 | -0.543 ± 0.043 | 0.248 | -0.175 | 0.0246 | -0.449
O=c1c(-c2ccc(O)cc2)coc2cc(O)cc(O)c12 [Genistein] | -0.619 ± 0.88 | -0.144 ± 0.64 | -1.39 | -0.799 | -1.24 | -1.21
CCOC(=O)C1=C(C)NC(C)=C(C(=O)OCC)C1c1ccccc1/C=C/C(=O)OC(C)(C)C [Lacidipine (Lacipil, Motens)] | -0.448 ± 0.21 | -0.286 ± 0.47 | 0.612 | 0.0664 | -0.562 | -0.632
CCCSc1ccc2[nH]c(NC(=O)OC)nc2c1 [Albendazole (Albenza)] | -6.07 ± 1.2 | -6.83 ± 3.6 | -3.43 | -7.78 | -4.73 | -6.42
CC(=O)Nc1ncc([N+](=O)[O-])s1 [Nithiamide] | 0.93 ± 0.093 | 1.68 ± 0.44 | -0.171 | 0.676 | 0.566 | -0.726
O=c1ccn([C@@H]2O[C@H](CO)[C@@H](O)[C@H]2O)c(=O)[nH]1 [Uridine] | -0.794 ± 0.35 | -0.663 ± 0.58 | -0.954 | -0.0734 | -0.751 | -1.47
COc1cc(Nc2c(C#N)cnc3cc(OCCCN4CCN(C)CC4)c(OC)cc23)c(Cl)cc1Cl [Bosutinib (SKI-606)] | -0.783 ± 1.6 | -1.15 ± 9 | 0.779 | -13.9 | -6.99 | -3.15
COC(=O)C1=C(C)NC(C)=C(C(=O)OCCN2CCN(C(c3ccccc3)c3ccccc3)CC2)C1c1cccc([N+](=O)[O-])c1 (configuration not stated) [Manidipine (Manyper)] | -1.34 ± 2.4 | -3.3 ± 2.6 | -4.35 | -8.95 | -0.00729 | -2.36
N#Cc1ccc(C(c2ccc(C#N)cc2)n2cncn2)cc1 [Letrozole] | 0.5621 ± 0.0011 | 3.01 ± 3.1 | 0.649 | -6.75 | -0.302 | -0.0497
O=C(O)CCNC(=O)c1ccccc1 [Betamipron] | 0.0753 ± 0.42 | 0.166 ± 0.47 | -0.0501 | -0.117 | 0.326 | -0.265
O=C1O[C@H]([C@@H](O)CO)C([O-])=C1O.[Na+] [Sodium ascorbate] | 0.508 ± 0.28 | 0.33 ± 1.1 | 0.972 | 0.855 | -0.0615 | 1.26
Nc1ncnc2c1ncn2[C@@H]1O[C@H](CO)[C@@H](O)[C@@H]1O [Vidarabine (Vira-A)] | 1.12 ± 0.45 | 0.594 ± 0.35 | 0.256 | 1.37 | -1.05 | 0.502
CCN(CC)CC#CCOC(=O)C(O)(c1ccccc1)C1CCCCC1 (configuration not stated) [Oxybutynin (Ditropan)] | -1.05 ± 0.015 | -0.811 ± 0.21 | 0.00736 | -0.432 | -0.954 | -0.992
CC(C)CN(C[C@@H](O)[C@H](Cc1ccccc1)NC(=O)O[C@H]1CCOC1)S(=O)(=O)c1ccc(N)cc1 [Amprenavir (Agenerase)] | 0.557 ± 0.64 | 0.453 ± 0.48 | 0.28 | 0.474 | 0.584 | 0.456
CC1(C)[C@H](C(=O)O)N2C(=O)C[C@H]2S1(=O)=O [Sulbactam] | -0.832 ± 0.99 | 0.134 ± 0.17 | 0.636 | -0.00723 | -0.653 | -0.366
CCCN[C@H]1CCc2nc(N)sc2C1 [Pramipexole (Mirapex)] | 1.31 ± 1 | 0.817 ± 0.6 | 1.47 | 1.61 | 0.281 | 0.84
CCOC(=O)C1=C(COCCN)NC(C)=C(C(=O)OC)C1c1ccccc1Cl (configuration not stated) [Amlodipine besylate (Norvasc)] | -2.96 ± 0.45 | -3.68 ± 2.2 | -2.59 | -4.31 | -7.48 | -12.3
Nc1ccn([C@H]2CC[C@@H](CO)O2)c(=O)n1 [Zalcitabine] | 1.01 ± 0.31 | -1.08 ± 0.32 | 3.82 | 0.224 | 0.923 | -0.377
C[C@]12CCC(=O)C=C1CC[C@@H]1[C@@H]2[C@@H](O)C[C@@]2(C)[C@H]1CC[C@]2(O)C(=O)CO [Hydrocortisone (Cortisol)] | 0.401 ± 0.14 | 0.619 ± 0.14 | -0.482 | -1.88 | 0.299 | 0.292
COC(=O)CCc1ccc(OCC(O)CNC(C)C)cc1 (configuration not stated) [Esmolol HCl] | -0.598 ± 0.39 | -0.36 ± 0.63 | 0.957 | -2.33 | 0.41 | -0.491
CC(=O)NC[C@H]1CN(c2ccc(N3CCOCC3)c(F)c2)C(=O)O1 [Linezolid (Zyvox)] | 2.3 ± 2.7 | 0.0939 ± 0.85 | 2.19 | -1.22 | -0.0432 | 0.102
O=C(CCCN1CCN(c2ccccn2)CC1)c1ccc(F)cc1 [Azaperone] | -0.91 ± 0.57 | 0.173 ± 0.067 | -1.02 | 0.315 | 0.65 | -0.151

SMILES | log2 surviving fraction (OVCAR4; [1]) | log2 surviving fraction (OVCAR4; [2]) | log2 surviving fraction (Ov4Carbo; [1]) | log2 surviving fraction (Ov4Carbo; [2]) | log2 surviving fraction (Ov4Cis; [1]) | log2 surviving fraction (Ov4Cis; [2])
COc1c2ccoc2cc2oc(=O)ccc12 [Bergapten] | 0.381 ± 0.27 | 0.513 ± 0.31 | 1.16 | 0.732 | 0.36 | 0.925
CC(=O)O[C@@]12CO[C@@H]1C[C@H](O)[C@@]1(C)C(=O)[C@H](O)C3=C(C)[C@@H](OC(=O)[C@H](O)[C@@H](NC(=O)OC(C)(C)C)c4ccccc4)C[C@@](O)([C@@H](OC(=O)c4ccccc4)[C@H]21)C3(C)C [Docetaxel (Taxotere)] | -5.6 ± 0.34 | -5.35 ± 6.5 | -4.33 | -8.76 | -4.01 | -6.42
O=C1CCc2cc(OCCCCc3nnnn3C3CCCCC3)ccc2N1 [Cilostazol] | -0.0724 ± 0.47 | 0.172 ± 0.098 | -0.293 | 0.0519 | -0.417 | 0.00792
NCC1(CC(=O)O)CCCCC1 [Gabapentin Hydrochloride] | -0.559 ± 0.084 | 0.219 ± 0.11 | 1.06 | 1.47 | -0.838 | 0.168
N#C[C@@H]1CCCN1C(=O)CNC12CC3CC(CC(O)(C3)C1)C2 [Vildagliptin (LAF-237)] | -0.7 ± 0.49 | 0.792 ± 0.51 | 0.0765 | 1.49 | -0.082 | -0.935
Clc1ccc2c(c1)C(N1CCNCC1)=Nc1ccccc1O2 [Amoxapine] | -3.02 ± 0.99 | -0.544 ± 0.54 | -4 | -1.33 | -2.89 | -1.24
COc1cccc(N(C)C(=S)Oc2ccc3c(c2)CCCC3)n1 [Liranaftate] | 0.224 ± 0.3 | -0.325 ± 0.42 | 0.334 | -0.269 | -0.679 | -0.62
Cc1cccc([C@H](C)c2c[nH]cn2)c1C [Dexmedetomidine HCl (Precedex)] | -0.0574 ± 0.057 | 0.258 ± 0.047 | -0.358 | -0.0121 | 0.763 | 0.431
O=S(=O)(O)NC1CCCCC1 [Cyclamic  acid] | 0.667 ± 0.062 | 0.539 ± 0.38 | -1.13 | -0.528 | 0.0534 | -1.13
CCCCCCNC(=O)n1cc(F)c(=O)[nH]c1=O [Carmofur] | -0.603 ± 0.21 | -2.73 ± 1.6 | -0.0616 | -4.38 | -1.05 | -3.05
CN(C)CCCN1c2ccccc2Sc2ccc(Cl)cc21 [Chlorpromazine (Sonazine)] | -1.81 ± 0.74 | -1.68 ± 0.063 | -3.21 | -0.711 | -3.18 | -1.34
COc1ccc(/C=C/C(=O)Nc2ccccc2C(=O)O)cc1OC | 0.332 ± 0.9 | 0.159 ± 0.97 | -0.13 | -0.0279 | -0.124 | 0.978
CN1CCc2cccc3c2[C@H]1Cc1ccc(O)c(O)c1-3 [R-(-)-Apomorphine HCl Hemihydrate] | -0.471 ± 0.45 | -0.791 ± 0.88 | -0.31 | -0.771 | -0.553 | -1.67
OC1(c2ccc(Cl)c(C(F)(F)F)c2)CCN(CCCC(c2ccc(F)cc2)c2ccc(F)cc2)CC1 [Penfluridol] | -10.5 ± 0.59 | -12.2 ± 6.5 | -8.91 | -12.6 | -8.64 | -15.4
CC(=O)SCC(Cc1ccccc1)C(=O)NCC(=O)OCc1ccccc1 (configuration not stated) [Racecadotril (Acetorphan)] | 0.236 ± 0.25 | 0.267 ± 0.17 | -0.405 | 0.284 | 0.673 | 0.0459
NCC(=O)CCC(=O)O [5-Aminolevulinic acid hydrochloride] | 0.343 ± 0.32 | 0.701 ± 0.11 | 0.637 | 1.43 | 0.355 | 1.18
NCC1(CC(=O)O)CCCCC1 [Gabapentin (Neurontin)] | 0.0601 ± 0.2 | 0.27 ± 0.48 | 0.222 | 0.274 | -0.108 | 0.595
CCC(C)(C)c1ccc(CC(C)CN2C[C@@H](C)O[C@@H](C)C2)cc1 (some centres not stated) [Amorolfine Hydrochloride] | -0.0239 ± 0.85 | 0.324 ± 0.047 | -0.0337 | -0.185 | 0.32 | -0.316
C[C@]12C=CC(=O)C=C1CC[C@@H]1[C@@H]2[C@@H](O)C[C@@]2(C)[C@H]1CC[C@]2(O)C(=O)CO [Prednisolone (Hydroretrocortine)] | 0.516 ± 0.56 | 0.08 ± 0.061 | 1.58 | 1.22 | 1.83 | -1.72
CCCSc1nc(N[C@@H]2C[C@H]2c2ccc(F)c(F)c2)c2nnn([C@@H]3C[C@H](OCCO)[C@@H](O)[C@H]3O)c2n1 [Ticagrelor] | -1.53 ± 0.67 | -0.612 ± 0.23 | -3.45 | -2.59 | -1.59 | -1.13
CC1(C)O[C@@H]2[C@@H](CO[C@@]3(COS(N)(=O)=O)OC(C)(C)O[C@@H]23)O1 [Topiramate] | -0.24 ± 0.39 | 0.407 ± 0.34 | -0.784 | -0.108 | -1.8 | 0.444
CCCCc1nc(Cl)c(CO)n1Cc1ccc(-c2ccccc2-c2nnn[nH]2)cc1 [Losartan potassium] | -0.278 ± 0.85 | -1.27 ± 0.5 | -0.243 | 0.463 | -0.62 | -0.341
CC[C@H](C)[C@H](N)C1=N[C@H](C(=O)N[C@@H](CC(C)C)C(=O)N[C@H](CCC(=O)[O-])C(=O)N[C@H](C(=O)N[C@H]2CCCCNC(=O)[C@H](CC(N)=O)NC(=O)[C@@H](CC(=O)[O-])NC(=O)[C@H](Cc3cnc[nH]3)NC(=O)[C@@H](Cc3ccccc3)NC(=O)[C@H]([C@@H](C)CC)NC(=O)[C@@H](CCCN)NC2=O)[C@@H](C)CC)CS1.[Zn+2] [Bacitracin zinc] | 0.986 ± 0.091 | 0.38 ± 0.091 | 0.00608 | 0.698 | 0.0616 | 0.187
